The campaign covered roughly 52,000 compounds. About 1,700 (3.3%) were called active. Cut-off read from the data, not from the text of the source: active = survival mostly below about 52% (no sharp cut-off); inactive = mostly above about 56%. Some of the results follow.
Test system: Wild type
Assay: S. aureus survival, RN4220 and DeltatarO strains – OD600, teichoic acid synthesis inhibitors, primary screen (AID 463173)
Settings: S. aureus RN4220 wild type/DeltatarO growth, OD600, 18 h, active compounds read low, screened at 18.75 µg/mL (by protocol)

**Q.** For `CCc1cc2c(cc3c(=O)n(CC(=O)NC4CCC(C)CC4)nc(CC)n32)s1` (stereo not given), which survival is on record?
**A.** inactive: 126%

**Q.** How did the survival turn out when `O=C(Nc1cccc2cccnc12)c1cccc2c(Br)cccc12` was run?
**A.** inactive: 77%

**Q.** `O=C1c2oc3ccccc3c(=O)c2C(c2ccccc2F)N1Cc1ccc2c(c1)OCO2` (stereo not given) was tested. Which survival did it give?
**A.** inactive: 74%

**Q.** Which survival does the source give for `Cc1cc(C)cc(NC(c2cccc(Cl)c2)c2nnc(-c3ccccc3)o2)c1` (stereo not given) here?
**A.** inactive: 91%

**Q.** How did the survival turn out when `Cc1c(C(=O)N(C)c2ccccc2)sc2nc(-c3ccc(F)cc3)cn12` was run?
**A.** inactive: 74%

**Q.** `COc1ccc(NC(=O)Cn2ccn(Cc3ccccc3)c(=O)c2=O)cc1Cl` was tested. Which survival did it give?
**A.** inactive: 90%

**Q.** How did the survival turn out when `CCN(CC)C(=O)CSc1nnc(Cc2ccccc2)n1CC` was run?
**A.** inactive: 103%

**Q.** `CCc1ccccc1NC(=O)Cn1c(C(=O)OC)cc2oc(C)cc21` was tested. Which survival did it give?
**A.** inactive: 94%

**Q.** How did the survival turn out when `CCOC(=O)c1ccc(NC(=O)c2cccc3c(=O)c4c([nH]c23)CCCC4)cc1` was run?
**A.** inactive: 73%

**Q.** For `CCN(CC)CCNC(=O)c1sc2nc(C)cc(C)c2c1-n1cccc1`, which survival is on record?
**A.** inactive: 85%

**Q.** `COc1ccc(-n2c(Cc3ccccc3)nnc2SCc2nc(-c3ccccc3C)no2)cc1` was tested. Which survival did it give?
**A.** inactive: 75%

**Q.** For `Cc1ccc2onc(CNC(=O)N(C)Cc3ccccc3)c2c1`, which survival is on record?
**A.** inactive: 84%

**Q.** For `O=C1c2[nH]nc(-c3ccccc3O)c2C(c2cccc(Br)c2)N1Cc1ccncc1` (stereo not given), which survival is on record?
**A.** inactive: 84%

**Q.** With `CN(C(=O)CSc1cn(CC(=O)N2CCCC2)c2ccccc12)c1ccccc1` as the compound, how does the survival read?
**A.** inactive: 83%

**Q.** Which survival does the source give for `O=C(Nc1ccc(Br)cc1F)c1ccc2nc(CCc3ccccc3)oc2c1` here?
**A.** inactive: 101%

**Q.** With `COc1ccc(Nc2nc(-c3ccccc3)c3cc(Br)ccc3n2)cc1` as the compound, how does the survival read?
**A.** inactive: 37%

**Q.** Which survival does the source give for `Cc1ccc(N(C)S(=O)(=O)c2ccc(-c3cnc(C4CC4)o3)cc2)cc1` here?
**A.** inactive: 76%

**Q.** For `CCn1c(CN2CCCCC2)nc2cc(NC(=O)COc3cc(C)ccc3C(C)C)ccc21`, which survival is on record?
**A.** inactive: 83%

**Q.** How did the survival turn out when `O=C(Cn1ncc2c3ccccc3n(Cc3ccc(F)cc3)c2c1=O)NC1CCCCCC1` was run?
**A.** inactive: 81%

**Q.** `NC(=O)Cn1cnc2sc3c(c2c1=O)CCCC3` was tested. Which survival did it give?
**A.** inactive: 105%

**Q.** How did the survival turn out when `CCOC(=O)c1cc(-c2ccccc2)n(-c2cccc(C(=O)NC(C)CC)c2)c1C` (stereo not given) was run?
**A.** inactive: 22%

**Q.** With `Clc1ccccc1CNc1nc2ccccc2c2nc(-c3ccccc3)nn12` as the compound, how does the survival read?
**A.** inactive: 106%

**Q.** Which survival does the source give for `O=C(C1CCCCC1)N(Cc1cccnc1)c1nc2c(F)cccc2s1` here?
**A.** inactive: 117%

**Q.** With `CC(C)Oc1ccc(CNC(=O)c2ccc3c(c2)N(Cc2ccc(F)cc2)CCS3)cc1` as the compound, how does the survival read?
**A.** inactive: 80%

**Q.** `Cc1ccc(C)c(NC(=O)N2CCN(c3nnc(C)c4c(C)n(-c5ccccc5)nc34)CC2)c1` was tested. Which survival did it give?
**A.** inactive: 92%

— PubChem BioAssay AID463173 (ICCB-Longwood Screening Facility, Harvard Medical School, 2010)
